# According to paper PMC12136788:
# This is one part of the list.
# T1: UNK ZnF1-6 (called full-length) (human, UniProt Q9C0B0 30-357)
# T1 sequence: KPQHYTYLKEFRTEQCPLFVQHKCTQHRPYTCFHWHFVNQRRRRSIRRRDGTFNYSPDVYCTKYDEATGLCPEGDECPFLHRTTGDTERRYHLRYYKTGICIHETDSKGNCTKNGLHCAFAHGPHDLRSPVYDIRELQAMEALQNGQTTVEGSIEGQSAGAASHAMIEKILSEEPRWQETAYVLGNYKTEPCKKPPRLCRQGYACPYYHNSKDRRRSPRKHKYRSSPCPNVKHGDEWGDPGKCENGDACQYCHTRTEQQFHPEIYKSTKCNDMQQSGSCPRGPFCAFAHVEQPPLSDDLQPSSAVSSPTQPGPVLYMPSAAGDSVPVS
# B1: ENSG00000124766:be:win_151|CDS|ENSG00000124766|bound_else_gene|NA|bound_elsewhere_windowed (ssRNA)
# RNA: GGGAGUUCUACAGUCCGACGAUCUGGUGCAAGACCCCGAGUGGGCACAUCAAGCGACCCAUGAACGCCUUCAUGGUGUGGUCGCAGAUCGAGCGGCGCAAGAUCAUGGAGCAGUCGCCCGACAUGCACAACGCCGAGAUCUCCCAACAGAGGAUUGAGCAUCA
# B2: chr7:73831540:73831641:+|CDS|ENSG00000189143|msi1|total|mutant (ssRNA)
# RNA: GGGAGUUCUACAGUCCGACGAUCCAAGGCCAAGACCAUGAUCGUGGCGGGCGUGGUGUUCCUGUUGGCCGGCCUUAUGGUGACCGUGCCGGUGUCCUGGACGGCCCACAACAUCAUCCAAGACUUCUACAAUCCGCUGGUGGCCAACAGAGGAUUGAGCAUCA
# B3: ENSG00000198589:be:win_5451|CDS|ENSG00000198589|bound_else_gene|NA|bound_elsewhere_windowed (ssRNA)
# RNA: GGGAGUUCUACAGUCCGACGAUCUUUUGCACCUUUUCUUUCUCGGACACUUUUGGGUAGCCAUGGACAAGAACUGCUUAUAGAAGGAACAAGUCUGGUUUGCAUGAAGUCGAGUAGUUCAGUUGUGGAAUUGGUUAUGCUACUCAACAGAGGAUUGAGCAUCA
# B4: chrX:152971868:152971969:+|3pUTR|ENSG00000147394|unk|FALSE|unique (ssRNA)
# RNA: GGGAGUUCUACAGUCCGACGAUCUUCCCUUACAGGUAUGUUGGCAUGUGUUGGAAAAUUUACACAAUUAGGUUUAAAUUCAGUAGGAUGUGAUUUUAGGAUGCUACUGAUCAAAGUGAUAUCUGUGUCUGUUGGAAUCUUGAUCAACAGAGGAUUGAGCAUCA
# B5: chr11:95166718:95166819:-|3pUTR|ENSG00000149212|unk|FALSE|unique (ssRNA)
# RNA: GGGAGUUCUACAGUCCGACGAUCACAGUUUCCCCUUCCUCUUUCUCUUCACAUUUACUCUUUUCAACCCAAAAUAAGAGACAUAGAAAGCAAACCACAGCCAGUUUGGCAUCUUCUCAGUGCUACUAGUAUAGGCACAUACACCAACAGAGGAUUGAGCAUCA
# B6: chr15:60347444:60347559:-|3pUTR|ENSG00000182718|msi1_unk|FALSE|overlapping (ssRNA)
# RNA: GGGAGUUCUACAGUCCGACGAUCUAACAGUCCCCGUGGCCAUCCCUGUGAGGGUGACGUUAGCAUUACCCCCAACCUCAUUUUAGUUGCCUAAGCAUUGCCUGGCCUUCCUGUCUAGUCUCUCCUGUAAGCCAAAGAAAUGAACAACAGAGGAUUGAGCAUCA
# B7: chr14:54957033:54957204:-|CDS|ENSG00000198554|control|control|control (ssRNA)
# RNA: GGGAGUUCUACAGUCCGACGAUCGCACGUUCAACUAAUAUUUUAGACAAUAUGGGCAAAUCAUCCAAGAAAUCCACUGCACUUAGUCGAACUACAAAUAAUGAAAAGUCUCCCAUUAUAAAGCCUCUGAUUCCAAAGCCGAAGCAACAGAGGAUUGAGCAUCA
# B8: chr18:55226207:55226308:-|3pUTR|ENSG00000196628|unk|total|mutant (ssRNA)
# RNA: GGGAGUUCUACAGUCCGACGAUCAUUUUUACAGCCACACAAUUCUUGGCAUGUAUUAAGAAAAAAAAAAAUCCCUGUUCAAGCCGUUUUUCCACCUAUCAGCACUGAGUAAAUGCCAUAAAUCCAUUGAAAUGGUCUAAAUGUCAACAGAGGAUUGAGCAUCA
# B9: chr10:113876644:113876745:+|CDS|ENSG00000196865|msi1|total|mutant (ssRNA)
# RNA: GGGAGUUCUACAGUCCGACGAUCGGUUAAUGAUGCAGAUGCCAGCCUUUGGCAAGAACCCGAAGUUUCCUGCUGGCCAACUCCCGUCAUACUUGGACCUCGUGGAAACAUGUUGUUUUCUUUGAUUGGAGAGGGACACAAAGACAACAGAGGAUUGAGCAUCA
# B10: chr18:3066806:3067261:-|three_prime_utr|ENSG00000101605|control|control|control (ssRNA)
# RNA: GGGAGUUCUACAGUCCGACGAUCAUGACACUUUAAUUGUUUUUCUUUAUCUACAAAAUUAUGUGUUAAGAAAAUACCAUUCAUAGCAUGAAGAUUAGGAAACAGUUUUAAGGAGAAGACUUGAAUGAAGUUGGAGGGACAUUGCAACAGAGGAUUGAGCAUCA
# B11: chr2:70656783:70663424:-|three_prime_utr|ENSG00000075340|control|control|control (ssRNA)
# RNA: GGGAGUUCUACAGUCCGACGAUCUCUCUCCUCCCCUUCCCUUCUCCCAUCUCUGUCCCUGCAAGCACAGGGCUAAGGAGGGAUAGAGUAGGACCCUGGACCACAUUCGGAAGGGGAACUUAGAGAUCACCCGACCAACCCUUCCAACAGAGGAUUGAGCAUCA
# B12: chr13:32775312:32775413:+|3pUTR|ENSG00000083642|unk|total|mutant (ssRNA)
# RNA: GGGAGUUCUACAGUCCGACGAUCGAAACUUGUAAAUAUCUUUUUUCUUUUUUUUAAUGUUUCUGAUUUCUGAAGUGCUUGUACCGCUUUUAUCUGCGGCUUUAAACUGACAGUACCCGACUGUUUAUUGGAUCUAUUGAUUUGCAACAGAGGAUUGAGCAUCA
# B13: ENSG00000107863:be:win_6101|3pUTR|ENSG00000107863|bound_else_gene|NA|bound_elsewhere_windowed (ssRNA)
# RNA: GGGAGUUCUACAGUCCGACGAUCGCAAGGUAUUUGUUGCAACUUACUACAUAGCAUAUACCCAAAAUCACUGAAGAAAAUCGCUGGCAUCAGUGUGCAGCAAAUUUGUUCUUUUGGUUUCAUCACUAACAAAAGUGCCUCAUCCAACAGAGGAUUGAGCAUCA
# B14: chr1:66363429:66363538:+|CDS|ENSG00000184588|unk|FALSE|bound_elsewhere (ssRNA)
# RNA: GGGAGUUCUACAGUCCGACGAUCAGACCUCCUAAAGACAUUCAGAAUCUCAUCUGACACAUUUAUAACCUACAUGAUGACUUUAGAAGACCAUUACCAUUCUGACGUGGCAUAUCACAACAGCCUGCACGCUGCUGAUGUAGCCAACAGAGGAUUGAGCAUCA
# Biological target: T1, UNK ZnF1-6 (called full-length)
# Test: nsRBNS (natural sequence RNA bind-n-seq); RBNS binding buffer (assumed for nsRBNS): 25 mM Tris pH 7.5, 150 mM KCl, 3 mM MgCl2, 0.01% Triton X-100, 500 ug/ml BSA, 20 U/ml SUPERase-In, 4 C; UNK is unkempt and MSI1 is Musashi-1; names of the RNAs are library labels; protein concentration not given here; high values mean tight binding
row,Binder,binding signal
1,B1,0.504 enrichment R
2,B2,0.537 enrichment R
3,B3,0.579 enrichment R
4,B4,1.17 enrichment R
5,B5,1.07 enrichment R
6,B6,1.57 enrichment R
7,B7,1.02 enrichment R
8,B8,0.431 enrichment R
9,B9,0.577 enrichment R
10,B10,0.704 enrichment R
11,B11,0.546 enrichment R
12,B12,1.13 enrichment R
13,B13,0.567 enrichment R
14,B14,0.653 enrichment R
